# Laboratory results from PubChem BioAssay AID686979 (National Center for Advancing Translational Sciences (NCATS), 2013).
# Hit rate of the full screen: of about 420,000 compounds, about 50,000 (12%) were called active. Inconclusive means that the source gave no clear call. Such entries were picked first, then a sample of the others. The call rests on the fitted dose curve; in most records, active means well fitted inhibition curve with a large enough effect; inconclusive means small, poorly fitted or top-dose-only effect; inactive means flat fitted curve, though single readings scatter. Potencies of inconclusive entries are left out as doubtful fits.
# Experiment: qHTS for Inhibitors of human tyrosyl-DNA phosphodiesterase 1 (TDP1): qHTS in cells in presence of CPT; further: nearly all actives have a fitted effect of over 55% in size
# Details: chicken DT40 Tdp1-/-;hTDP1 cells + 20 nM CPT, ATP luminescence, 48 h; series mostly up to 46.2 µM
# Summary of the method: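 Cell growth measured by CellTiter-Glo luminescence after a minimum 48 h, 37 C compound exposure with 20 nM CPT in Tdp1-knockout DT40 cells stably expressing hTDP1, seeded 400/well; qHTS titration format.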
# Potency means the concentration at half of the fitted maximal effect; tags describe the fitted curve by direction and shape.
row,SMILES,Potency
1,COc1cc(-c2nnc3n(CCc4ccccc4)c(=O)c4ccccc4n23)cc(OC)c1OC,"inconclusive [inhibitor, single point]"
2,CCN(CC)c1ccc(NC(=S)Nc2ccc(F)cc2)cc1,"inconclusive [inhibitor, partial curve]"
3,O=C(CSc1ccc(F)cc1)Nc1ccc(C2SCCS2)cc1,inactive
4,CCS(=O)(=O)c1c(S(=O)(=O)CC)c2cc(C(C)(C)C)ccn2c1C(=O)c1ccc(F)cc1,"inconclusive [inhibitor, single point]"
5,Cc1cc2c(cc1C)NC(CC(=O)Nc1cccc(C)c1C)C(=O)N2 (configuration not stated),active: 14.6 µM
6,Cc1ccc(C)c(CN2CCc3nnc(CNC(=O)c4cc(C)oc4C)n3CC2)c1,"inconclusive [inhibitor, full curve, poor fit]"
7,N#CC(c1ccc(O)cc1)N1CCOCC1 (configuration not stated),inactive
8,CC(Nc1ncnc2c1cnn2-c1cccc(Cl)c1)c1ccccc1 (configuration not stated),"inconclusive [inhibitor, single point]"
9,Cc1nn(-c2cc(N3CCCCC3)ccc2[N+](=O)[O-])c(=O)c2ccccc12,"inconclusive [inhibitor, partial curve]"
10,C[C@H]1CN([C@@H](C)CO)C(=O)CCCn2cc(nn2)CO[C@@H]1CN(C)S(=O)(=O)c1ccccc1C#N,inactive
11,CCC(C)NC(=O)CN1C(=O)CSc2ccc(S(=O)(=O)N3CCCC3)cc21 (configuration not stated),inactive
12,COc1ccccc1CNS(=O)(=O)c1cc2c3c(c1)C(C)C(=O)N3CCC2 (configuration not stated),"inconclusive [inhibitor, single point]"
13,CCN(Cc1ccccc1)C(=O)CN1C(=O)COc2ccc(S(=O)(=O)N3CCOCC3)cc21,"inconclusive [inhibitor, partial curve]"
14,CC(=O)N1c2ccc(S(=O)(=O)N3CCCC3C(=O)NCc3ccccc3Cl)cc2CC1C (configuration not stated),"inconclusive [inhibitor, partial curve]"
15,CCN1CCN(c2nc(N)c([N+](=O)[O-])c(Nc3cccc(C)c3)n2)CC1,"inconclusive [inhibitor, single point]"
16,COc1ccc(N(C(=O)/C=C/c2ccccc2)C2=CC3CCC(C2)N3C)cc1 (configuration not stated),"inconclusive [inhibitor, single point]"
17,O=C(Nc1c[nH]c(=O)[nH]c1=O)c1cccc([N+](=O)[O-])c1,"inconclusive [inhibitor, single point]"
18,COc1cc(/C=C/[N+](=O)[O-])ccc1OC(=O)c1cc2ccccc2oc1=O,"inconclusive [inhibitor, partial curve, poor fit]"
19,CC(C)n1ncc2c(C(=O)N3CCN(Cc4ccc(Br)s4)CC3)cc(C3CC3)nc21,active: 25.9 µM
20,CCOc1cc(C2NC(=O)NC(C)=C2C(=O)OC(C)CC)cc(Br)c1O (configuration not stated),"inconclusive [inhibitor, single point]"
21,COc1cc(/C=N/NC(=O)C2COc3ccccc3O2)ccc1O (configuration not stated),inactive
22,CCCNC(=O)c1cc(C2CCCN(C(=O)c3cc(C(C)(C)C)nn3C)C2)on1 (configuration not stated),"inconclusive [inhibitor, partial curve, poor fit]"
23,CCOC(=O)C1=CCN(S(=O)(=O)c2ccc(C)cc2)[C@H]1c1ccccc1Cl,"inconclusive [inhibitor, single point]"
24,Cc1oc(-c2cccs2)nc1CN1CCN(Cc2ccc(F)c(F)c2)C(CCO)C1 (configuration not stated),"inconclusive [inhibitor, single point]"

row,SMILES,Potency
1,CCN(Cc1ccc(O)cc1)CC1CCCN(CCc2cccc(F)c2)C1 (configuration not stated),active: 16.4 µM
2,CCCCCCCC(=O)C(C)C(=O)N(C)[C@H](Cc1ccc(OC)cc1)C(=O)N(C)[C@H](C(N)=O)C(C)C (some centres not stated),"inconclusive [inhibitor, partial curve, poor fit]"
3,CC(C)CN(C(=O)C(c1ccccc1)c1ccccc1)c1c(N)n(CC(C)C)c(=O)[nH]c1=O,inactive
4,Cc1ccc(C(=O)N2CCN(c3ccccc3O)CC2)cc1S(=O)(=O)N1CCCCC1,"inconclusive [inhibitor, single point]"
5,CC1(C(=O)Nc2ccc3c(c2)OCO3)CCN1C(=O)C1(c2ccc(Cl)cc2)CC1 (configuration not stated),"inconclusive [inhibitor, single point]"
6,CCCCN=C1NN=C(c2ccc(C)c(C)c2)CS1,"inconclusive [inhibitor, single point]"
7,O=c1c(-c2cccs2)nc2cnc(N3CCNCC3)nc2n1-c1ccccc1,"inconclusive [inhibitor, single point]"
8,Cc1nn(CCC(=O)Nc2cccc(C#N)c2)c(C)c1S(=O)(=O)N1CCC(C)CC1,"inconclusive [inhibitor, single point]"
9,COc1cccc(Nc2nc(-c3ccc(O)cc3)cs2)c1,"inconclusive [inhibitor, single point]"
10,COc1cc(/C=C2/N=C(c3ccccc3F)OC2=O)cc(Cl)c1OS(C)(=O)=O,"inconclusive [inhibitor, single point]"
11,COC(=O)c1ccc(S(=O)(=O)NCCSc2nnc3c4ccccc4n(C)c3n2)cc1,"inconclusive [inhibitor, single point]"
12,COc1cc2c(cc1NC(=O)c1cc(-c3ccncc3)nc3ccc(C)cc13)oc1ccccc12,active: 23.1 µM
13,N#Cc1c2n(c3c(=O)[nH]cnc13)CCCC2,inactive
14,O=S(=O)(NC1CC1)c1ccc(S(=O)(=O)N(Cc2ccccn2)C2CCCC2)cc1,inactive
15,COc1ccc(OC)c(NC(=O)CN(c2ccccc2OC)S(=O)(=O)c2ccc(C)cc2)c1,active: 16.4 µM
16,COc1cc2c(cc1OC)CN(c1ccc([N+](=O)[O-])cc1Cl)CC2,active: 23.1 µM
17,O=C(NCc1ccccc1)C1=C[C@@H](c2coc3ccccc3c2=O)C[C@@H](OCc2ccc(CO)cc2)O1,active: 10.3 µM
18,CCN(CC(=O)NCc1cccs1)C(=O)c1cccc(S(=O)(=O)Nc2ccccc2Cl)c1,inactive
19,COc1ccc(C(=O)N2CCOC2CNC(=O)C(=O)NCCc2ccc(OC)c(OC)c2)cc1 (configuration not stated),inactive
20,Cc1cccc(CSc2nc3c(c(=O)n2C)SCC3)c1,"inconclusive [inhibitor, single point]"
21,Cc1ccc(NC(=O)CSc2ccccn2)cc1S(=O)(=O)N1CCOCC1,inactive
22,COc1ccc(C(=O)N/N=C/c2c[nH]c3ccccc23)cc1,inactive
23,COc1ccccc1-c1ccc2ncnc(NCc3cccnc3)c2c1,active: 8.2 µM
24,COc1ccc(C(C(=O)Nc2ccc(F)cc2)N2CCN(c3cccc(C(F)(F)F)n3)CC2)cc1 (configuration not stated),"inconclusive [inhibitor, single point]"

row,SMILES,Potency
1,CC(C)(C)C(=O)CN1C2=NCCCN2c2ccccc21,inactive
2,CC(=O)OCCN1C(=O)c2ccc(-c3nc4ccccc4c(=O)o3)cc2C1=O,"inconclusive [inhibitor, partial curve]"
3,O=C(c1ccc(CSc2ccc(Cl)cc2)cc1)N1CCCC1,"inconclusive [inhibitor, single point]"
4,Cc1ccc(C(=O)N2CC=C(c3ccccc3)CC2)o1,"inconclusive [inhibitor, single point]"
5,COCCCNC(=O)c1csc([C@@H]2O[C@H](CO)[C@H](O)[C@H](O)[C@H]2O)n1,inactive
6,O=C(CSc1nc2ccccc2n1Cc1cccc(C(F)(F)F)c1)NCc1ccccc1,active: 18.4 µM
7,CC1(C)CC(NC(=O)c2ccncc2)CC(C)(C)N1O,inactive
8,CSc1cccc(CN2CCCC(C(=O)Nc3cccc(-n4cccn4)c3)C2)c1 (configuration not stated),"inconclusive [inhibitor, single point]"
9,CCOc1cccc(C2Oc3nc(SC)nnc3-c3ccccc3N2C(C)=O)c1OC (configuration not stated),inactive
10,COc1ccc(CN2CCN(C(=O)CC(C)C)CC2)cc1Br,inactive
11,COC(=O)CC1Oc2ccc(Cl)cc2-n2cc(-c3ccc(C)cc3)nc21 (configuration not stated),active: 9.2 µM
12,COc1ccccc1C(=O)Nc1ccnn1C1CCN(Cc2csc(C(C)=O)c2)CC1,"inconclusive [inhibitor, full curve, poor fit]"
13,Cc1ccc(CCNS(=O)(=O)c2cc3c(cc2C)NC(=O)CO3)cc1,inactive
14,CC(=O)c1c(O)c(C)c(-c2ccccc2)n(-c2ccccc2)c1=O,"inconclusive [inhibitor, single point]"
15,CCCCn1c(N)c(N(CCC(C)C)C(=O)C2CCCN(C(=O)c3ccc(Cl)cc3)C2)c(=O)[nH]c1=O (configuration not stated),inactive
16,Nc1ncc(S(=O)(=O)N2CCN(c3ccccc3)CC2)cn1,inactive
17,NC1C(N)C(N)C1N (configuration not stated),inactive
18,COc1ccc(-c2ccc(CO)o2)cc1N,"inconclusive [inhibitor, partial curve, poor fit]"
19,O=C(CSc1cc(Cl)ccc1Cl)NC1CCCC1,inactive
20,COc1ccc(Cl)cc1NC(=O)c1oc2ccc(S(=O)(=O)N3CCCCC3)cc2c1C,inactive
21,O=C(CN1C(=O)CC(c2ccccc2)S(=O)(=O)c2ccccc21)N1CCCCC1 (configuration not stated),inactive
22,Cc1ccc(-c2n[nH]c(=O)c3ccccc23)c(C)c1,"inconclusive [inhibitor, single point]"
23,BrC(=C\c1ccccc1)/C=N/Nc1nc(N2CCOCC2)nc(N2CCOCC2)n1,active: 2.31 µM
24,COc1cc(NC(=O)CSc2ccc(-c3sc(C)nc3C)nn2)cc(OC)c1,active: 20.6 µM
